# Measurements: ChEMBL document CHEMBL1157539, “Thousands of chemical starting points for antimalarial lead identification” (Nature, 2010)
# The full ranking holds about 13,000 compounds; the median of “IFI” is about 4, and the highest 2% start at about 17. Some of the results follow.
# Assay: GSK_TCMDC: Inhibition Frequency Index (IFI). The number of non-kinase HTS assays where a compound showed > 50 % inhibition, expressed as a percentage of the number of such assays in which the compound was tested (-0 is zero)
# Assay type: functional
row,SMILES,IFI [%]
1,CCNC[C@@H](O)[C@H](Cc1ccccc1)NC(=O)c1cc2c3c(c1)c(CC)cn3CCS(=O)(=O)N2C,1.49
2,COc1ccc2[nH]ccc(=NN=Cc3ccccc3F)c2c1,5.22
3,Cc1ccc(S(=O)(=O)N2CCN(C(=O)c3cc(-c4ccccc4)n[nH]3)CC2)cc1,2.7
4,CCOc1cc(C)ccc1C1CCN(CCCCNC(=O)c2coc(-c3ccc(Cl)cc3)c2)CC1,7.89
5,CCN(CCCN1CCCCC1)c1nccc(Nc2ccc(Cl)cc2)n1,-0
6,CCn1ccc2c(N3CCCC3=O)cc(C(=O)N[C@@H](Cc3ccccc3)[C@H](O)CNC(C)(C)CCCC(C)C)cc21,4.96
7,Cc1ccc(Cc2cnc(CN3CCCCC3)c(O)c2)cc1,0.74
8,COc1cccc(CNC(=O)c2cc(CNCc3ccccc3)ccc2-c2cccc(CNCc3ccc(-c4ccccc4)cc3)c2)c1,9.6
9,CO/C(=C\C=C\c1cc2cc(Cl)c(Cl)cc2[nH]1)C(=O)NCCCN1CCCC[C@H]1C,15
10,Cc1cccc2nc(-c3ccc(-c4ccc(CN5CCN(CCO)CC5)cc4)cc3)[nH]c12,5.88
11,CC(C)Nc1nc(NCCc2c[nH]cn2)nc(NCc2cccc3ccccc23)n1,0.75
12,C=C[C@]1(C)C[C@@H](OC(=O)c2cncn(COC)c2=O)[C@]2(C)[C@H](C)CC[C@]3(CCC(=O)[C@H]32)[C@@H](C)[C@@H]1O,1.52
13,O=C(Nc1ccc(OC2CCN(Cc3ccc(F)cc3)C2)c(Cl)c1)c1ccc(F)cc1 (stereo not drawn),8.06
14,Cc1cc2ncc(C(N)=O)c(Nc3ccc(N4CCOCC4)cc3)c2cc1S(C)(=O)=O,3.55
15,Cn1ccnc1CNC(=O)c1ccc(-c2cccc(-c3nc4cc(C(F)(F)F)ccc4[nH]3)c2)cc1,2.75
16,COc1ccc2nccc(NC(=O)OC3CCC(NCc4ccc5c(n4)NC(=O)CS5)CC3)c2c1 (stereo not drawn),-0
17,COc1cc(C(=O)NC2CC(C)(C)N(C)C(C)(C)C2)ccc1-c1cc2cc(Cl)c(Cl)cc2[nH]1,13.6
18,O=C(C=Cc1ccc(-c2ccccc2)cc1)N1CCC(CCN2CCC(c3c[nH]c4ccccc34)CC2)CC1,7.91
19,CCC1CN(CCCn2c3ccccc3c3ccccc32)C(CC)CN1 (stereo not drawn),8.21
20,Cc1cc2ccc(/C=C/C(=O)NC3CCC(CCN4CCc5ccc(C#N)cc5CC4)CC3)cc2[nH]1 (stereo not drawn),1.52
21,Cc1ccc(S(=O)(=O)N(CCCN2CCN(C)CC2)Cc2csc(-c3ccc(CNCc4ccccc4)cc3)n2)cc1,4.93
22,CC(=O)CCc1ccc(OCCN(Cc2ccccc2C(F)(F)F)c2ccc(C#N)c(C(F)(F)F)c2)cc1,1.42

row,SMILES,IFI [%]
1,O=C(CSc1nn(-c2ccccc2)c(=S)s1)c1c[nH]c2ccccc12,0
2,CO/C(=C\C=C\c1cc2cc(Cl)c(Cl)cc2[nH]1)C(=O)NC1CC(C)N(C)C(C)C1 (stereo not drawn),11.8
3,NC(=O)c1ccc(C(=O)Nc2cccc(-c3csc(-c4nc5ccccc5[nH]4)c3)c2)cc1,0
4,COc1cc(C(=O)N2C(c3nccs3)C(C(=O)N(OC)C(C)c3ccccc3)CC2(CC(C)C)C(=O)OC(C)(C)C)ccc1C(C)(C)C (stereo not drawn),2.88
5,COc1cc(Cc2cnc(N)nc2N)cc(OCCCc2cc(OCc3ccccc3)no2)c1OC,2.9
6,CCOc1ccc(-c2nc(NC(=O)Cc3cccc(OC)c3)sc2C)cc1,1.42
7,Cc1[nH]c(C)c(-c2ccc(OCc3cccc(C(F)(F)F)c3)nc2)c(=O)c1Br,13.8
8,CCOC(=O)C(CO)NC(=O)c1ccc([N+](=O)[O-])o1 (stereo not drawn),1.41
9,COc1ccc(C2CC(c3cccs3)=NN2C(=O)CNc2ccccc2F)cc1OC (stereo not drawn),0
10,O=C(c1cccc(-c2noc(C(F)(F)F)n2)c1)N1CCN(c2ccncc2)CC1,-0
11,O=C(/C=C/c1ccc(Cl)c(Cl)c1)NCCCCCN1CCCC(CNS(=O)(=O)c2cccc(C(F)(F)F)c2)C1 (stereo not drawn),15.7
12,OC1CCCN(Cc2ccc(-c3ccc(-c4nc5cc(F)ccc5[nH]4)s3)cc2)C1 (stereo not drawn),2.82
13,Cc1cccc2nc(-c3cccc(-c4cccc(CNCCNC(=O)c5ccnn5C)c4)c3)[nH]c12,4.95
14,COc1ccc(CCNc2ccnc3cc(Cl)ccc23)cc1OC,5.93
15,Cc1cc(Nc2ccc(C)c(Cl)c2)n2nc(C(F)(F)F)nc2n1,-0
16,COCC(=O)Nc1nc2ccccc2[nH]1,-0
17,Cc1nc2ccc3ccc(CNc4ccc5c(c4)CN([C@H](CCC(=O)O)C(=O)O)C5=O)cc3c2c(=O)[nH]1,1.52
18,COc1ccc(C(=O)N2CCc3cc4nccc(N5CCN6CCC[C@H]6C5)c4cc32)cc1,5.04
19,O=c1nc(NCCCNCc2cc3c(Cl)cc(Cl)cc3[nH]2)[nH]c2ccccc12,8.63
20,O=C(/C=C/c1ccc(Cl)c(Cl)c1)NC1CCN(CCCNC(=O)c2cccc(Cl)c2)CC1,9.87
21,CCNc1cc(C(=O)N[C@@H](Cc2ccccc2)[C@H](O)CNC(CC)c2cccc(Cl)c2)cc(N2CCCC2=O)c1 (stereo partly drawn),5.07
22,CNC(=N)c1ccc(NC(=O)c2ccc(C(=O)Nc3ccc(C(=N)NC)cc3)cc2)cc1,2.96

row,SMILES,IFI [%]
1,CCCc1c(C(=O)OCC)c2cc(O)ccc2n1-c1ccc(OC)cc1,1.67
2,O=C(Nc1ccc(-c2ccccc2)cc1)Nc1cccc(Cn2nc(Cl)c(N3CCCNCC3)cc2=O)c1,6.94
3,N#Cc1ccc(N/C(=N\c2cccc(Cl)c2Cl)NC2Cc3ccccc3C2)c(O)c1,6.47
4,COc1ccccc1N(C)CCNc1cc(C)nc(Nc2ccccc2)n1,9.52
5,O=C(Cn1c(CCc2cccc(F)c2F)nc(=O)c2ccccc21)N(Cc1ccc(-c2ccc(C(F)(F)F)cc2)cc1)C1CCN(C2CCOCC2)CC1,12.1
6,CC(=NNc1nc2ccccc2s1)c1ccccn1,14.4
7,CCN(CC)CCCN(C(=O)Nc1ccc(C#N)cc1)c1nc(-c2ccc(F)cc2)cs1,7.23
8,O=C(O)CCSSc1cccc[n+]1[O-],12.3
9,CC1CCCCC1N(C)C1CCN(CCCNC(=O)C=Cc2cccc(C(F)(F)F)c2)CC1 (stereo not drawn),7.44
10,CS(=O)(=O)c1cccc(-c2cnc(N)c3cc(-c4cccc(F)c4)ccc23)c1,5.38
11,CN1CCC(N2CCN(Cc3ccc(-c4cccc(-c5nc6ccccc6[nH]5)c4)cc3)CC2)CC1,7.04
12,Cc1cc(N[C@@H](Cc2ccccc2)C(=O)Nc2ccccc2)nc(NCC2CCCCC2)n1,11.6
13,CC1CCCN(S(=O)(=O)c2cc(Br)cc3c2N(C(=O)C2CC2)CC3)C1 (stereo not drawn),1.99
14,O=C(/C=C/c1ccc(Cl)c(Cl)c1)NCCCCCCN1CCCN(C(=O)Nc2ccc(F)c(Cl)c2)CC1,7.32
15,CC(C)c1sc(-c2ccc(C(C)(C)C)cc2)nc1C(=O)NCCCN1CCCC1=O,1.67
16,CCOc1cc(C(=O)NCCc2ccc(Cl)c(Cl)c2)ccc1-c1nc2cc(Cl)ccc2[nH]1,1.43
17,O=C(/C=C/c1ccc(Cl)c(Cl)c1)NCCCCCCN1CCCN(C(=O)Nc2ccc(F)c(F)c2)CC1,6.5
18,C=CCOc1ccc(C2C(C(=O)OC)=C(C)NC3=C2C(=O)c2ccccc23)cc1OC (stereo not drawn),4.4
19,Cc1cccc2nc(-c3cccc(-c4cccc(NC(=O)c5cccnc5Cl)c4)c3)[nH]c12,4.63
20,O=C(NC(c1ccccc1)c1ccc2cccnc2c1O)c1ccccc1 (stereo not drawn),9.03
21,Brc1ccsc1-c1nc(NCCC(c2ccccc2)c2ccccc2)no1,10.6
22,COc1ccc2nc(C)cc(N/N=C/c3ccc([N+](=O)[O-])cc3)c2c1,2.11

row,SMILES,IFI [%]
1,CCc1c[nH]c2c(N3CCCC3=O)cc(C(=O)N[C@@H](Cc3ccccc3)[C@H](O)CNC(C)(C)CCCC(C)C)cc12,6.62
2,Cc1ccc(NC(=O)N2CCN(CCCCCNC(=O)/C=C/c3ccc(Cl)c(Cl)c3)CC2)cc1C,4.05
3,CC(C)(CNC(=O)C1CCN(CC2CCCCC2)CC1)c1nc(-c2ccc(Cl)c(O)c2)c(-c2ccncc2)[nH]1,0.74
4,O=C(Nc1ccc(N2CCN(Cc3c[nH]c4cc(F)ccc34)CC2)cc1)c1ccccc1-c1ccc(C(F)(F)F)cc1,7.83
5,CN1CCc2ccc(NC(=O)Nc3cccc(C(=O)c4ccccc4)c3)cc2C1,-0
6,O=S(=O)(Nc1cc2c(cc1O)CCN(C1CCC1)CC2)c1ccc(-c2ccc(F)cc2)cc1,0
7,O=C(c1cccs1)N(Cc1cccc(-c2ccc(CNCCc3ccccc3)cc2)c1)C1CCN(Cc2ccccc2)CC1,7.86
8,O=C(Nc1ccc(F)cc1)NC1CCN(c2ccnc3cc(Cl)ccc23)C1 (stereo not drawn),0
9,N=C(N)c1ccc(NN=Cc2ccc(Oc3ccc(C(=N)N)cc3)cc2)cc1,6.29
10,COc1ccc(-c2cnc3ccc(NC4CCC(O)CC4)nn23)cn1 (stereo not drawn),5.3
11,COc1cccc2cc(C(=O)N[C@@H](CC(C)C)C(=O)N[C@H](C=NN3CCOC3=O)CC(C)C)oc12,3.51
12,O=C(Nc1ccc(OC2CCN(Cc3ccc(F)cc3)CC2)c(Cl)c1)c1ccco1,1.61
13,Cc1ccccc1C1CCN(C2CCC(NC(=O)/C=C/c3ccc(F)cc3)CC2)CC1 (stereo not drawn),6.67
14,Cc1[nH]c(C)c(-c2ccc(-c3ccc(C(F)F)cc3)nc2)c(=O)c1Cl,-0
15,O=C(NCc1ccc(Cl)cc1)c1ccc(CN2CCCN(Cc3cccc(O)c3)CC2)cc1,8.13
16,Cc1cc(N2CCC(NS(=O)(=O)c3ccccc3)CC2)nc(Nc2cccc(C#N)c2)n1,5.88
17,N#CC(NC(=O)C=Cc1ccccc1)c1ccccc1 (stereo not drawn),0.72
18,CC1CN(Cc2cccc(C#N)c2)CCN1c1ccc(NC(=O)c2cccs2)cc1 (stereo not drawn),5
19,CC(C)(CNCc1ccc(F)c(F)c1)c1nc(-c2ccnc(N)n2)c(-c2ccc(Cl)c(O)c2)[nH]1,5.63
20,Cc1cnc(Nc2ccccc2)nc1NCCC(=O)Nc1ccccc1,-0
21,CCCCCN1CCCCC(NS(=O)(=O)c2ccc(C(=O)Nc3cccc(C(F)(F)F)c3)cc2)C1 (stereo not drawn),3.06
22,CN(C)CCC1CCN(CCS(=O)(=O)c2cccc(Nc3ccc(-c4cccc(F)c4)cn3)c2)CC1,14.8
